Hit rate of the full screen: of about 7,900 compounds, about 400 (5.1%) showed an effect of 50% or more. Some of the results follow.

In the assay the target is Parkinson's disease protein 7 (PARK7/DJ1) (human, UniProt Q99497). As to the kind of experiment: primary screen, percent inhibition; read as competition with a fluorescent probe by fluorescence polarization; higher = more effect of the substance. The following applies: 100 µM. The method in brief: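 Fluorescence-polarization probe displacement (JYQ-107, 20 nM final, 2 h) after 2 h preincubation of PARK7 (0.2 μM final) with each fragment at 100 μM final. Read-out ex/em 480/520 nm; remaining activity derived from FP signal loss relative to reference controls.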
Sequence of Parkinson's disease protein 7 (PARK7/DJ1) (Q99497 whole entry, looked up, the tested form may be a part): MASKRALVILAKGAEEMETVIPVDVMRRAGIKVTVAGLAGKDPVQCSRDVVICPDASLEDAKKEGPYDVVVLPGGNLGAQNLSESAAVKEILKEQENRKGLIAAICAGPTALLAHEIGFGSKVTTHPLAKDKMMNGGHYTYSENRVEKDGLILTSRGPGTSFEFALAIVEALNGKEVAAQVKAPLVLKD
As to `Cl.O=C(CCl)N1CCN(Cc2ccccc2)CC1`, the Inhibition % is given as 7.64%.

For `O=C(CS)Nc1ccc(F)cc1`, the Inhibition % came out at 5.25%.

For the molecule `C=CC(=O)N1CCSCC1c1cccs1` (stereo not drawn), the Inhibition % was 10.1%.

For the molecule `Cc1cccc(OCC2CO2)c1` (stereo not drawn), the Inhibition % is on record as 1.24%.

Take `N#Cc1ncn(CC(=O)Nc2ccccc2Cl)n1`: the Inhibition % amounted to 9.82%. The value for `N#CC(=Cc1ccc(O)cc1)c1ccccn1` was 10.2%; that for `Cc1nc(NC(=O)CN2CCSC2=O)sc1C` was 10.6%.

As for `CC1CC(Sc2nnc(-c3ccccc3)n2C)C(=O)O1` (stereo not drawn), the Inhibition % amounted to 4.4%.

Turning to `O=C(CCl)c1ccc(Cl)cc1`, the Inhibition % is on record as 75.6%. `C=CC(=O)N1CCCC(n2cc(C(=O)O)nn2)C1` (stereo not drawn): the Inhibition % is on record as 12.4%. Consider `O=C(CCl)NCCc1ccc2c(c1)OCCO2`, for which the Inhibition % is reported as 47.9%. Regarding `C=CC(=O)NCC1(CC)COC1`, the Inhibition % was 7.79%. On to `O=C(CCCl)NC1CCCC1`, for which the Inhibition % is 8.22%. The figure for `Cc1cc(C(=O)Nc2cccc(S(=O)(=O)F)c2)nn1C(C)(C)C` is 32.8%. For `C=CC(=O)NC1CCCc2cn(C3CCCC3)nc21` (stereo not drawn), the Inhibition % came to 5.07%. The figure for `O=C(CN1CCSC1=O)Nc1cccc(F)c1` is 6.11%; for `Cc1noc(C)c1S(=O)(=O)Oc1cccc2cccnc12` it is 0.67%.

Take `CCOc1cc(S(=O)(=O)n2ccc(C)n2)ccc1Cl`: the Inhibition % is given as 2.71%. The figure for `N#Cc1c(F)cccc1OS(=O)(=O)c1c[nH]cn1` is 4.42%; for `COc1ccc(C(=O)CCl)c(OC)c1` it is 41.1%; for `COC(=O)c1ccccc1NC(=O)CCl` it is 8.41%. On to `CC(=O)N1CCN(C(=O)C=Cc2csc(C)n2)CC1`, for which the Inhibition % worked out at 16%.

For the molecule `CN(C)S(=O)(=O)c1ccc(NC(=O)CCl)cc1`, the Inhibition % turned out to be 84.2%.

`Fc1cccc(F)c1C1CO1` (stereo not drawn): the Inhibition % is listed as 7.72%. Take `Cc1nn(C)c(C)c1C=CC(=O)N1CCc2sccc2C1`: the Inhibition % came to 11.3%.

In the case of `Cc1ccc(C#N)c(S)n1`, the Inhibition % was found to be 4.79%. With `CC(c1ccccc1)N(C)C(=O)CCl` (stereo not drawn), the Inhibition % is 98.5%. Turning to `N#Cc1ccnc2ccccc12`, the Inhibition % was found to be 6.17%.

For `Cc1ccc(S(=O)(=O)N2CCCCC2C2OCCO2)cc1` (stereo not drawn), the Inhibition % amounted to 3.92%. `CC(C)(C)Nc1ccc(C#N)nc1`: the Inhibition % is 11.5%. With `COc1cccc(COCC2CO2)c1` (stereo not drawn), the Inhibition % was found to be 5.75%. The value for `CC(=O)N1c2ccc(B3OC(C)(C)C(C)(C)O3)cc2CC1(C)C` was 5.32%.

On to `Clc1ccc([C@H]2CO2)cc1Cl`, for which the Inhibition % was found to be 5.75%. With `CC(C)(C)OC(=O)N1CCOc2c(cccc2B2OC(C)(C)C(C)(C)O2)C1`, the Inhibition % is 5.79%. With `CN(C)C(=O)Sc1cccc(N)c1.Cl`, the Inhibition % turned out to be 15.1%.

Turning to `C=CC(=O)N1CCCC(C(=O)OC(C)(C)C)C1` (stereo not drawn), the Inhibition % worked out at 11.6%.

Consider `O=C(CCN1C(=O)CCC1=O)Nc1ccccc1F`, for which the Inhibition % is reported as 6.84%.

For `C=CC(=O)Nc1nc2ccc(F)cn2n1`, the Inhibition % came to 5.86%. In the case of `C=CC(=O)N1CCN(CC(C)C)C(=O)C1C` (stereo not drawn), the Inhibition % worked out at 0.151%.

For `C=CC(=O)Nc1cccc(-c2noc(C(F)F)n2)c1`, the Inhibition % came out at 6.78%.

Turning to `O=C(O)C=CC(=O)Nc1ccc(F)cc1`, the Inhibition % is listed as 7.34%. With `CCc1cc(=O)[nH]c(=S)[nH]1`, the Inhibition % is 6.25%. As for `O=c1[nH]c(S)nc2ccc(F)cc12`, the Inhibition % was 1.88%. As for `Cc1c2cnnc(S)c2c(C)n1C`, the Inhibition % is listed as 7.71%.

For `C=CC(=O)NC1CCSc2c(F)cccc21` (stereo not drawn), the Inhibition % stood at 10.1%. Consider `COc1ccc(S(=O)(=O)n2ccnc2C)cc1C`, for which the Inhibition % amounted to 9.92%.

As for `C=CC(=O)N1CC2(C)CC1CC(C)(C)C2` (stereo not drawn), the Inhibition % was found to be 3.44%. `O=S(=O)(F)c1ccc(S(=O)(=O)Nc2ccccn2)cc1`: the Inhibition % was determined as 5.71%. Consider `Cl.O=C(CCl)N1CCN(CCOc2ccccc2)CC1`, for which the Inhibition % was 0.06%. The value for `C=CC(=O)NC1CCN(Cc2cccs2)CC1` was 9.36%.

As to `CC1(C)OB(c2cccc(-n3cnnn3)c2)OC1(C)C`, the Inhibition % is given as 2.2%. In the case of `Cc1cc(C)nc(NC#N)n1`, the Inhibition % stood at 4.54%. On to `CCOc1ccc(C2CCCN2C(=O)CCl)cc1` (stereo not drawn), for which the Inhibition % is given as 28.1%. As for `Cl.OB(O)c1ccc2cnccc2c1`, the Inhibition % came to 4.5%. `CC(C)(C)c1nc(Cn2cnc(C#N)n2)cs1`: the Inhibition % was found to be 6.92%. As to `C=CC(=O)N1CC(C)(C)C1c1ccco1` (stereo not drawn), the Inhibition % turned out to be 8.16%. On to `CSc1cc(B2OC(C)(C)C(C)(C)O2)ccc1N`, for which the Inhibition % is reported as 8.09%. Consider `N#Cc1cccc(O)n1`, for which the Inhibition % stood at 1.98%. For the molecule `O=C(NNS(=O)(=O)c1cccc(S(=O)(=O)F)c1)C1CCC1`, the Inhibition % is reported as 99.9%. Take `CN(Cc1cccc(C(F)(F)F)c1)C(=O)CCl`: the Inhibition % is listed as 37.1%. On to `C=CC(=O)N1CCC(OC)C(C)C1` (stereo not drawn), for which the Inhibition % came out at 4.37%.

For `O=C(CCl)NCc1ccc(F)cc1C(F)(F)F`, the Inhibition % turned out to be 13.5%. The value for `CC(C)CC(=O)NNS(=O)(=O)c1cccc(S(=O)(=O)F)c1` was 98.2%. The value for `C=CC(=O)N(CC)Cc1nccs1` was 6.6%; that for `C=CC(=O)NC(C)C1CCCCC1C` (stereo not drawn) was 2.06%.

As for `O=C(CCl)Nc1nc(-c2ccco2)cs1`, the Inhibition % amounted to 21.8%. For the molecule `Cc1cc(F)cc(C(=O)N2CCC(C3OCCO3)CC2)c1`, the Inhibition % stood at 2.1%. Take `Cc1csc(NC(=O)CS)n1`: the Inhibition % is 71.5%. `CC(NC(=O)C(C#N)=Cc1cnn(C)c1)c1ccccc1` (stereo not drawn): the Inhibition % is listed as 6.97%. For the molecule `C=CC(=O)NC1(Cc2ccc(F)cc2)CC1`, the Inhibition % worked out at 7.92%. As to `Cn1ccc(COc2ccc(B3OC(C)(C)C(C)(C)O3)cc2)n1`, the Inhibition % is 4.59%. For the molecule `O=C(CN1CCSC1=O)NC1CCN2CCCCC12` (stereo not drawn), the Inhibition % was 10.2%. As for `C=CC(=O)N1CCC(Cc2ccccc2OC)CC1`, the Inhibition % came to 7.23%.

Consider `O=C(CCl)Nc1cc(C(F)(F)F)ccc1-n1cncn1`, for which the Inhibition % was determined as 32.5%.

Turning to `C=CC(=O)N1CCC(CN)CC1.Cl`, the Inhibition % was 2.16%. For the molecule `ClCCCc1nnnn1-c1ccccc1`, the Inhibition % is on record as 8.31%. `O=C(CCl)Nc1nnc(-c2ccco2)o1`: the Inhibition % was determined as 24.5%.

Consider `CC1(C)OB(c2cc3ccoc3cc2Cl)OC1(C)C`, for which the Inhibition % is 2.39%. Take `CCc1ccc(OC)c(S(=O)(=O)n2ccnc2CC)c1`: the Inhibition % is recorded as 29%. The figure for `Cl.O=C(CCl)NCc1ccccc1CN1CCOCC1` is 3.64%; for `C=CCn1c(S)nc2sccc2c1=O` it is 30.7%.

With `C=CC(=O)NCC1(C)CC1(F)F` (stereo not drawn), the Inhibition % amounted to 10.8%. In the case of `CN1CN=C(S)NC1`, the Inhibition % is 3.57%. The figure for `COc1ccc(C2CCCN2C(=O)CCl)cc1` (stereo not drawn) is 9.8%.

On to `N#CC(C(=O)Nc1ccccc1)=C1NCCCN1`, for which the Inhibition % is listed as 6.27%. On to `COc1cc(C#N)ncn1`, for which the Inhibition % was determined as 4.18%. The figure for `C=CC(=O)N1CCCC1c1ccc(CC)o1` (stereo not drawn) is 15.5%; for `O=C(CCl)Nc1ccc2c(c1)NC(=O)CO2` it is 32.7%; for `CC(C)(C)OC(=O)N1CCc2sc(B3OC(C)(C)C(C)(C)O3)cc2C1` it is -1.84%. For `O=C(Nc1ccccc1F)N1CCCCC1C1OCCO1` (stereo not drawn), the Inhibition % is reported as -0.462%.

In the case of `C=CC(=O)N[C@@H]1CC(=O)N(C)[C@H]1c1ccnn1C`, the Inhibition % came out at 5.96%. As for `CCn1ncc(NC(=O)C(F)(F)F)c1B1OC(C)(C)C(C)(C)O1`, the Inhibition % is recorded as 49.6%.

With `Cl.NCC1CC2(CCC2)C(=O)O1` (stereo not drawn), the Inhibition % came to 7.98%. Consider `CC(C)NC(=O)C(C#N)=Cc1ccc(O)cc1`, for which the Inhibition % was found to be 9.15%. Turning to `C=CC(=O)Nc1ccc(C(F)F)nc1`, the Inhibition % came to 5.3%.

For the molecule `O=C1CCC(C(=O)NC2CCCCCCC2)O1` (stereo not drawn), the Inhibition % is given as 4.2%. Take `CNc1cccc(B2OC(C)(C)C(C)(C)O2)c1.Cl`: the Inhibition % was 38.7%. Take `N#Cc1cc(Cl)nc(C2CC2)n1`: the Inhibition % is given as 4.67%. For `C=CC(=O)N1CCC(c2ccc(C(F)(F)F)cc2)C1` (stereo not drawn), the Inhibition % amounted to 11%. For the molecule `O=C(NCCCS(=O)(=O)F)OCc1ccccc1`, the Inhibition % is 95.8%. As for `Cc1noc(C)c1-c1ccc(N2CCC2=O)cc1`, the Inhibition % is 8.35%. The value for `O=S(=O)(F)Cc1ccccc1Cl` was 7.95%. The value for `CC1CCCC(C)N1C(=O)Cn1cnc(C#N)n1` (stereo not drawn) was 3.14%; that for `Cc1ccc(CN(C)C(=O)CCl)o1` was 40.8%; that for `Cc1csc(CNc2ccnc(C#N)c2)n1` was 5.66%. As for `N#CCCN(Cc1ccco1)C(=O)CCl`, the Inhibition % came to 9.85%. Consider `CNS(=O)(=O)c1cc(NC(=O)CCl)ccc1C`, for which the Inhibition % was found to be 6.77%. With `CCn1ncnc1NS(=O)(=O)c1cccc(S(=O)(=O)F)c1`, the Inhibition % was determined as 99%. Consider `O=C(CCl)NCCc1ccc(Cl)cc1Cl`, for which the Inhibition % is 23.1%.

`O=c1c2ccccc2ncn1CCCl`: the Inhibition % is 1.17%. As to `C=CC(=O)N1CCC(CNC(=O)c2cnn(C)c2)CC1`, the Inhibition % was 7.88%. As to `CS(=O)(=O)c1ccc(NC(=O)CCl)cc1`, the Inhibition % was 51.8%.

`C=CC(=O)Nc1ccn(CC2CCOC2)n1` (stereo not drawn): the Inhibition % stood at 4.28%. As for `C=CC(=O)NC1CC2CCC(C2)C1` (stereo not drawn), the Inhibition % is given as 31%. Turning to `CN(C(=O)Cn1ccc(=O)[nH]c1=O)C1CC(C)(C)OC1=O` (stereo not drawn), the Inhibition % came out at 3.6%. For the molecule `CCOc1ccccc1Cn1cnc(C#N)n1`, the Inhibition % worked out at 5.08%. Regarding `O=C(CN1CCSC1=O)N1CCN(c2ccccc2)CC1`, the Inhibition % worked out at 5.93%. As to `Cc1cc(NC(=O)CCl)n(-c2ccccc2C)n1`, the Inhibition % worked out at 13.5%.

Take `CC1(C)OB(c2ccc(C(N)=O)s2)OC1(C)C`: the Inhibition % is reported as 3.67%. For the molecule `Cc1cc(B2OC(C)(C)C(C)(C)O2)on1`, the Inhibition % is 27.5%. In the case of `C=CC(=O)N1CCC(F)(F)CC1C` (stereo not drawn), the Inhibition % amounted to 9.18%.

As for `Cn1nc(B2OC(C)(C)C(C)(C)O2)c(Br)c1C(F)(F)F`, the Inhibition % is recorded as -2.94%. The figure for `C=CC(=O)N1CCC(c2ccn(C)n2)CC1` is 1.04%; for `C=CC(=O)N1CCC(c2ccccc2C)C1` (stereo not drawn) it is 1.59%. For the molecule `COc1cccc(NC(=O)C=CC(=O)O)c1`, the Inhibition % is 9.53%. `CC1(C)OB(c2cccc(-c3nccs3)c2)OC1(C)C`: the Inhibition % was 7.79%.

For the origin of these results see paper PMC9574860, “Chemical Toolkit for PARK7: Potent, Selective, and High-Throughput” (Journal of Medicinal Chemistry, 2022).
